Reference: paper PMC12820563, “FoxP3 forms a head-to-head dimer in vivo and stabilizes its multimerization on adjacent microsatellites”
The other results are listed elsewhere or left out.

These sequences were tested against T1, MBP-FoxP1dN (Mus musculus, UniProt P58462 326-579) (assay: PD-seq (MBP pull-down with sequencing); 20 mM Tris-HCl pH 7.5, 100 mM NaCl, 1.5 mM MgCl2, 0.4 uM protein, 0.1 uM dsDNA library, 30 min, room temperature, amylose pull-down; high values mean tight binding). Conditions: protein: recombinant; tags: His6-MBP; chain copies: 2; dsDNA, one strand shown.
T1 sequence: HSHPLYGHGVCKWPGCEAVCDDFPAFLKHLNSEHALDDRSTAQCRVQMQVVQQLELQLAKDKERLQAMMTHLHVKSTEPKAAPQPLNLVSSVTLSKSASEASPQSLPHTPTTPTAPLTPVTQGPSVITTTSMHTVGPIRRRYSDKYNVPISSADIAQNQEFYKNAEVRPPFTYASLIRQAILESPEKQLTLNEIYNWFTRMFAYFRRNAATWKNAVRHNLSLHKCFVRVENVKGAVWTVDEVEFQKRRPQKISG
How it was run: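 A fragment of mouse FoxP3 or FoxP1 without its N-terminus, carrying a His6-MBP tag and produced in E. coli, was combined at 0.4 µM with a 0.1 µM degenerate double-stranded DNA library filled in with Klenow. The mixture sat for 30 min at room temperature in Tris pH 7.5 buffer containing NaCl and MgCl2. Protein–DNA complexes were captured on amylose resin, washed three times, and the DNA was freed with proteinase K, barcoded by PCR and sequenced on Illumina. Binding is expressed as reads-per-million enrichment of pull-down over input, with replicates pooled.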

| Sequence | binding signal |
| --- | --- |
| GATGATTGTTCTCCCAGCTGATGAATTGCCACCCTCGAGTAAACAAATTTTCCTAATCTTTCTGTTCAAGCGCCATCTAC | 1 RPM ratio (pull-down/input) |
| GATGATTGTTCTCCCAGCTGATGAATTCGTACCCTCGAGTAAACAAATTTTCCTAATCTTTCTGTTCAAGCGCCATCTAC | 0.848 RPM ratio (pull-down/input) |
| GATGATTGTTCTCCCAGCTGATGAATTCGACTAATCGAGTAAACAAATTTTCCTAATCTTTCTGTTCAAGCGCCATCTAC | 0.991 RPM ratio (pull-down/input) |
| GATGATTGTTCTCCCAGCTGATGAATTCGGCCTCTCGAGTAAACAAATTTTCCTAATCTTTCTGTTCAAGCGCCATCTAC | 0.795 RPM ratio (pull-down/input) |
| GATGATTGTTCTCCCAGCTGATGAATTGGTTAATTCGAGTAAACAAATTTTCCTAATCTTTCTGTTCAAGCGCCATCTAC | 1.07 RPM ratio (pull-down/input) |
| GATGATTGTTCTCCCAGCTGATGAATTGTATAATTCGAGTAAACAAATTTTCCTAATCTTTCTGTTCAAGCGCCATCTAC | 1.27 RPM ratio (pull-down/input) |
| GATGATTGTTCTCCCAGCTGATGAATTGAGTCGTTCGAGTAAACAAATTTTCCTAATCTTTCTGTTCAAGCGCCATCTAC | 0.827 RPM ratio (pull-down/input) |
| GATGATTGTTCTCCCAGCTGATGAATTTGTAACCTCGAGTAAACAAATTTTCCTAATCTTTCTGTTCAAGCGCCATCTAC | 1.11 RPM ratio (pull-down/input) |
| GATGATTGTTCTCCCAGCTGATGAATTGGTTTGCTCGAGTAAACAAATTTTCCTAATCTTTCTGTTCAAGCGCCATCTAC | 1.07 RPM ratio (pull-down/input) |
| GATGATTGTTCTCCCAGCTGATGAATTGTATTATTCGAGTAAACAAATTTTCCTAATCTTTCTGTTCAAGCGCCATCTAC | 1.67 RPM ratio (pull-down/input) |
| GATGATTGTTCTCCCAGCTGATGAATTTCTAGACTCGAGTAAACAAATTTTCCTAATCTTTCTGTTCAAGCGCCATCTAC | 0.86 RPM ratio (pull-down/input) |
| GATGATTGTTCTCCCAGCTGATGAATTGTAGCGATCGAGTAAACAAATTTTCCTAATCTTTCTGTTCAAGCGCCATCTAC | 1.04 RPM ratio (pull-down/input) |
| GATGATTGTTCTCCCAGCTGATGAATTCCGGGGGTCGAGTAAACAAATTTTCCTAATCTTTCTGTTCAAGCGCCATCTAC | 0.722 RPM ratio (pull-down/input) |
| GATGATTGTTCTCCCAGCTGATGAATTCATGATTTCGAGTAAACAAATTTTCCTAATCTTTCTGTTCAAGCGCCATCTAC | 1.05 RPM ratio (pull-down/input) |
| GATGATTGTTCTCCCAGCTGATGAATTTCTACTTTCGAGTAAACAAATTTTCCTAATCTTTCTGTTCAAGCGCCATCTAC | 0.891 RPM ratio (pull-down/input) |
| GATGATTGTTCTCCCAGCTGATGAATTCCGTATATCGAGTAAACAAATTTTCCTAATCTTTCTGTTCAAGCGCCATCTAC | 1.03 RPM ratio (pull-down/input) |

| Sequence | binding signal |
| --- | --- |
| GATGATTGTTCTCCCAGCTGATGAATTGAAACTGTCGAGTAAACAAATTTTCCTAATCTTTCTGTTCAAGCGCCATCTAC | 0.899 RPM ratio (pull-down/input) |
| GATGATTGTTCTCCCAGCTGATGAATTTTTCACTTCGAGTAAACAAATTTTCCTAATCTTTCTGTTCAAGCGCCATCTAC | 0.951 RPM ratio (pull-down/input) |
| GATGATTGTTCTCCCAGCTGATGAATTACGATCGTCGAGTAAACAAATTTTCCTAATCTTTCTGTTCAAGCGCCATCTAC | 0.952 RPM ratio (pull-down/input) |
| GATGATTGTTCTCCCAGCTGATGAATTGCGGCTGTCGAGTAAACAAATTTTCCTAATCTTTCTGTTCAAGCGCCATCTAC | 1.05 RPM ratio (pull-down/input) |
| GATGATTGTTCTCCCAGCTGATGAATTTCTGGTATCGAGTAAACAAATTTTCCTAATCTTTCTGTTCAAGCGCCATCTAC | 0.908 RPM ratio (pull-down/input) |
| GATGATTGTTCTCCCAGCTGATGAATTGGGAGCATCGAGTAAACAAATTTTCCTAATCTTTCTGTTCAAGCGCCATCTAC | 1.05 RPM ratio (pull-down/input) |
| GATGATTGTTCTCCCAGCTGATGAATTGCTGCTATCGAGTAAACAAATTTTCCTAATCTTTCTGTTCAAGCGCCATCTAC | 1.1 RPM ratio (pull-down/input) |
| GATGATTGTTCTCCCAGCTGATGAATTACCCGCATCGAGTAAACAAATTTTCCTAATCTTTCTGTTCAAGCGCCATCTAC | 1.21 RPM ratio (pull-down/input) |
| GATGATTGTTCTCCCAGCTGATGAATTGGTTGACTCGAGTAAACAAATTTTCCTAATCTTTCTGTTCAAGCGCCATCTAC | 1.01 RPM ratio (pull-down/input) |
| GATGATTGTTCTCCCAGCTGATGAATTGTAACTCTCGAGTAAACAAATTTTCCTAATCTTTCTGTTCAAGCGCCATCTAC | 1.03 RPM ratio (pull-down/input) |
| GATGATTGTTCTCCCAGCTGATGAATTGGCCTTGTCGAGTAAACAAATTTTCCTAATCTTTCTGTTCAAGCGCCATCTAC | 0.802 RPM ratio (pull-down/input) |
| GATGATTGTTCTCCCAGCTGATGAATTGCAGCTGTCGAGTAAACAAATTTTCCTAATCTTTCTGTTCAAGCGCCATCTAC | 1.08 RPM ratio (pull-down/input) |
| GATGATTGTTCTCCCAGCTGATGAATTAGCGTAGTCGAGTAAACAAATTTTCCTAATCTTTCTGTTCAAGCGCCATCTAC | 0.954 RPM ratio (pull-down/input) |
| GATGATTGTTCTCCCAGCTGATGAATTAAGGGTGTCGAGTAAACAAATTTTCCTAATCTTTCTGTTCAAGCGCCATCTAC | 0.898 RPM ratio (pull-down/input) |
| GATGATTGTTCTCCCAGCTGATGAATTCGAGATGTCGAGTAAACAAATTTTCCTAATCTTTCTGTTCAAGCGCCATCTAC | 0.873 RPM ratio (pull-down/input) |
| GATGATTGTTCTCCCAGCTGATGAATTGCCCGTTTCGAGTAAACAAATTTTCCTAATCTTTCTGTTCAAGCGCCATCTAC | 0.92 RPM ratio (pull-down/input) |
